Test results taken from publication PMC4336329 (PLoS ONE, 2015).
Hit rate of the full screen: of about 310,000 compounds, about 2,200 (0.71%) showed an effect of 50% or more. Effects have a minus sign here. The list shows a part of the results.

molecular target: human ether-à-go-go-related gene (hERG) potassium channel (human, UniProt Q12809); test: primary screen, population patch clamp on CHO cells stably expressing hERG
Sequence (Q12809 whole entry, looked up): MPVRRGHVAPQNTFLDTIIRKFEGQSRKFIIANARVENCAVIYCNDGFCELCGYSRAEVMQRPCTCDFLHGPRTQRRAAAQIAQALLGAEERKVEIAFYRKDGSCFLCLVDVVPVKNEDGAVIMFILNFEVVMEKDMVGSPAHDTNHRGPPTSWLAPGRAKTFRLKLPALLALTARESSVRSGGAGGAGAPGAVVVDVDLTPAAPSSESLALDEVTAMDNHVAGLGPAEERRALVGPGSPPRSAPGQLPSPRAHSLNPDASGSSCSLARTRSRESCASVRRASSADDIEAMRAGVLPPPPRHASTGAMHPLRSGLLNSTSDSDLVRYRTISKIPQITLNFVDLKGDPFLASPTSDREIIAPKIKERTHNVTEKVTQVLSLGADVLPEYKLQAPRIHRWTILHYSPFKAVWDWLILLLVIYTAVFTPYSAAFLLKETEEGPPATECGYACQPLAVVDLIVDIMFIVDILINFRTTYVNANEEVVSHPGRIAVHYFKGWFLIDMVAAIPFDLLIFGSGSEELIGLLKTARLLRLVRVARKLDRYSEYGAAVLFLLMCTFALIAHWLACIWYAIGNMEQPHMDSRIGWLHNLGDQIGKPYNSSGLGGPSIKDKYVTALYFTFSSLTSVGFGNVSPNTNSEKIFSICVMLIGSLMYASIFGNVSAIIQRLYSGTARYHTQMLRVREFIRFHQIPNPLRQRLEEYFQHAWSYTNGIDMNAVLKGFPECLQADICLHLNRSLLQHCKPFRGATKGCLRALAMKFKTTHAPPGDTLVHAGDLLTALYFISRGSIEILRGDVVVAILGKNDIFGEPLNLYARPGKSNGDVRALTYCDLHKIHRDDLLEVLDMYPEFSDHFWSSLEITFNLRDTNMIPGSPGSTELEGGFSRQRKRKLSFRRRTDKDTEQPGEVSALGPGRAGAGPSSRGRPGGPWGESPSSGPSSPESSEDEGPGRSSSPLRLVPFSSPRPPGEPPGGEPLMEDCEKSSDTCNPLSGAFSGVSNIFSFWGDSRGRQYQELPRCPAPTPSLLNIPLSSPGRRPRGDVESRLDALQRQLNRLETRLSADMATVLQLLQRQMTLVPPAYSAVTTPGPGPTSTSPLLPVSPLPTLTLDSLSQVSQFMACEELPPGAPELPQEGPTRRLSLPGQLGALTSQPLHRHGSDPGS

Row | Compound | hERG current change (%, negative = inhibition) at 1uM [%]
1 | CC1(C)Cc2c(sc3c2C(=O)N(c2ccccc2)C2=NCCN23)CS1.Cl | 8.49
2 | O=C(CCC(=O)N(CC(=O)NC1CCCCC1)Cc1ccccc1)Nc1ccccn1 | 13.9
3 | CC(=O)NS(=O)(=O)c1ccc(NC(=O)/C=C/c2ccccc2)cc1 | 13
4 | O=C(C1CC(=O)N(c2ccc(F)cc2)C1)N1CCN(c2ccccc2)CC1 (centres unmarked) | -13.6
5 | CCc1nnc(SCC(=O)Nc2ccccc2)n1CC1CCCO1 (centres unmarked) | 6.7
6 | CC(C)c1nnc(NC(=O)COC(=O)/C=C/c2ccc([N+](=O)[O-])cc2)s1 | 7.85
7 | CC(C)(C)c1ccc(CCC2OCC(CN3CCOCC3)O2)cc1 (centres unmarked) | 4.49
8 | O=C(O)C1CCN(S(=O)(=O)c2cccc3nonc23)CC1 | 14.7
9 | COc1cc(C(=O)OCc2cccc(OC)c2OC)ccc1OCC(=O)N1CCOCC1 | 2.56
10 | CC(C)[N+]1(C)[C@@H]2CC[C@H]1CC(OC(=O)C(CO)c1ccccc1)C2.O.[Br-] (some centres unmarked) | 9.02
11 | Cc1ccc(Cn2ccc(NC(=O)c3cc(-c4ccc(Br)cc4)on3)n2)cc1 | 18.6
12 | CCOC(=O)N1CCN(C(=O)c2cnsn2)CC1 | 10.7
13 | CCCN(CCC)S(=O)(=O)c1ccc(C(=O)N2CCN(C)CC2)cc1 | 9.6
14 | O=C(Nc1cccnc1)c1ccc(Cl)c(S(=O)(=O)N2CCOCC2)c1 | 4.49
15 | NC(=O)[C@@H]1CCCN1C(=O)c1cc(COc2ccc3c(c2)CCCC3)on1 | 6.71
16 | CCNCCC(=O)N1c2ccccc2Sc2ccc(NC(=O)OCC)cc21.Cl | -5.29
17 | Cc1cccc(OCc2nnc(SCC(=O)Nc3cccc(C(=O)N4CCOCC4)c3)n2C)c1C | 9.42
18 | CCCCOc1ccc(C(=O)N2CCCC2C(=O)O)cc1 (centres unmarked) | -3.78
19 | O=C(O)[C@@H]1CCCN1S(=O)(=O)c1cccc(S(=O)(=O)N2CCC[C@H]2C(=O)O)c1 | 10.5

Row | Compound | hERG current change (%, negative = inhibition) at 1uM [%]
20 | COC(=O)CC1C(=O)NCCN1C(=O)c1cc([N+](=O)[O-])ccc1Cl (centres unmarked) | 14.7
21 | Clc1ccccc1C1=CC(c2ccco2)n2nnnc2N1 (centres unmarked) | 9.01
22 | CC(C)Sc1nc(N2CCCC2)c2c(c1C#N)CC(C)(C)OC2 | -0.586
23 | CSc1ccccc1OCc1cc(C(=O)N[C@H]2CCCCNC2=O)no1 | 4.94
24 | O=C(Oc1ccc2c(c1)OCO2)c1ccc(F)cc1Cl | -3.08
25 | COc1cccc(-n2c(CN3CCOCC3)nc3ccc([N+](=O)[O-])cc3c2=O)c1 | 7.9
26 | COC(=O)c1c(NC(=O)COC(=O)c2ccccn2)sc(C)c1C | 10.7
27 | CC(C)c1nnc(NC(=O)CCc2ccccc2)s1 | 18.7
28 | CCOC(=O)CSc1nnc(-c2cccnc2)n1C | 8.02
29 | Cc1ccc(Cn2c(SCCN3CCOCC3)nc3c2c(=O)n(C)c(=O)n3C)cc1 | -6.9
30 | O=C(Cn1c(C(F)(F)F)nc2ccccc21)NCCN1CCCC1 | 8.48
31 | CCOc1ccc2nc(NC(=O)CN3CCN(c4ccccn4)CC3)sc2c1 | 3.81
32 | Nc1nnc(SCC(=O)NC2CCCC2)s1 | 15.1
33 | CCc1noc(C)c1C(=O)OCC(=O)Nc1ccc(F)cc1Cl | 13
34 | CC(=O)c1cccc(NC(=O)CCS(=O)(=O)c2cccc3nsnc23)c1 | 8.23
35 | COc1ccc(C(C)=O)cc1CSc1nc2cc(Cl)ccc2o1 | 15.4
36 | N#Cc1ccccc1COC(=O)c1ccc(Br)o1 | 12.9
37 | COc1ccc(C2C(C(=O)OCC3CCCO3)=C(C)NC3=C2C(=O)CC(c2ccco2)C3)cc1O (centres unmarked) | 16.6
38 | COc1ccc(-c2[nH]ncc2C2N=C(N)Nc3nc4ccccc4n32)cc1 (centres unmarked) | 20.8

Row | Compound | hERG current change (%, negative = inhibition) at 1uM [%]
39 | COc1cc(OC)cc(C(=O)N[C@H](C(=O)OCC(N)=O)C(C)C)c1 | 13.3
40 | COC(=O)/C(=C1\Oc2ccc(C(C)(C)C)cc2S1)C(F)(F)F | 3.38
41 | Cn1c(=O)cc(SCC(=O)NCc2ccc(F)cc2)c2ccccc21 | 6.18
42 | CO/N=C(/C(=O)N[C@@H]1C(=O)N2C(C(=O)[O-])=CCS[C@H]12)c1cnc(N)s1.[Na+] | 16
43 | CC1=NN(C(=O)CCc2ccccc2)C(O)(c2ccncc2)C1 (centres unmarked) | 3.74
44 | Cc1c(OCc2nn[nH]n2)ccc2c3c(c(=O)oc12)CCCC3 | -8.18
45 | CC(OC(=O)CCc1nc2ccccc2[nH]c1=O)c1ccccc1 (centres unmarked) | 12.6
46 | O=C1c2ccccc2-c2nc3ccccc3cc21 | 12.9
47 | CC(C)(C)NC(=O)c1cc(NC(=O)c2cccs2)cc(NC(=O)c2cccs2)c1 | 18.6
48 | Cc1c(Cl)cccc1-n1c(SCC(=O)NCc2cccs2)nnc1-c1ccncc1 | -8.68
49 | CCOc1ccc(CC(=O)NCCS(=O)(=O)N2CCN(c3ccccc3)CC2)cc1 | 10.2
50 | CCOC(=O)C1CCCN(C(=O)Cn2ncc3c([nH]c4ccc(C)cc43)c2=O)C1 (centres unmarked) | 12.8
51 | COCCn1c(=O)c2ccccc2c2ccccc2c1=O | 11.4
52 | O=C1CC(N(CCc2ccccc2)C(=S)Nc2ccccc2)C(=O)N1c1ccc(Br)cc1 (centres unmarked) | 12.5
53 | O=C(CSc1nnnn1C1CCCCC1)NCc1ccco1 | 10.7
54 | O=C(CCc1nnc2ccc(NCc3ccco3)nn12)Nc1ccc(F)cc1F | -0.592
55 | COc1ccc(Cl)cc1C(=O)NC(C)C | 6.02
56 | Cc1ccccc1NC(=O)Cn1nnc2c(cnn2-c2ccc(F)cc2)c1=O | 5.23
